Reference: patent publication US5635593A (priority 1995, dated 1997)
“Also recorded” adds a separate entry of the source. Part of at least one peptide drawing is inferred or uncertain, most often the ends. Peptide text beside a SMILES is read from it.

Target: T1, BK2 -receptor (Rattus norvegicus, UniProt P25023)
T1 construct: guinea-pig ileum (GPI), rat uterus (RU) and rabbit jugular vein (RJV); from tissue; host or cells: rat uterus
T1 sequence (P25023 1-396): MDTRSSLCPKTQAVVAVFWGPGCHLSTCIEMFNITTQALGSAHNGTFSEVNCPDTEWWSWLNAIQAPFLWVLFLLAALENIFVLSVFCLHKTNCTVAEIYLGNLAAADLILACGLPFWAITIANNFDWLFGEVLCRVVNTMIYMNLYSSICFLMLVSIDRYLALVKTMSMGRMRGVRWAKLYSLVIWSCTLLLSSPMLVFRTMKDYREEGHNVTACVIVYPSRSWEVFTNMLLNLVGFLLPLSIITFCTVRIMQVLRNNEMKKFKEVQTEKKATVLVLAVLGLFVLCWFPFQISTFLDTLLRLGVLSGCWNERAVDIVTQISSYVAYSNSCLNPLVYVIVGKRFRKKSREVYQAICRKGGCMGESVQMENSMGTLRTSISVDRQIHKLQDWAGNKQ
Assay: rat uterus (RU) in vitro, antagonism of BK
Settings: for pA2 rat uterus (BK2): against BK
Description: Thus, in vitro studies were performed on standard assay systems, namely, guinea-pig ileum (GPI), rat uterus (RU) and rabbit jugular vein (RJV). […] The potency of each compound was assessed as a pA2 value according to the method of Arunlakshana & Schild, Br. J. Pharmacol. Chemother., 14:48-58 (1959). The pA2 can be defined as the negative logarithm of the molar concentration of the antagonist in the presence of which the potency of the agonist is reduced two-fold, i.e., twice the amount of agonist is required to produce a given response in the presence of, than in the absence of, the antagonist. A high potency of antagonism is indicated by a high pA2 value. i.e., a low concentration of antagonist is effective.
The percentage recovery (% Rec) was also determined for compounds with respect to each assay.
With respect to duration of activity, it is noted that after exposure to the highest concentration of antagonist, each tissue was washed extensively and then assessed for recovery from the antagonist effect.
Potency in the rat uterus assay was assessed as described above and pA2 values determined.

Structure (SMILES)	pA2 rat uterus (BK2)	recovery of the BK curve after washing-off of the antagonist (80 minutes)
CC(C)C[C@H](NC(=O)[C@@H](Cc1ccccc1)NC(=O)[C@H](CO)NC(=O)[C@H](Cc1ccccc1)NC(=O)CNC(=O)[C@@H]1C[C@@H](O)CN1C(=O)[C@H](CSC1CC(=O)N(CCCCCCN2C(=O)CC(SC[C@H](NC(=O)[C@H](CCCNC(=N)N)NC(=O)[C@H](N)CCCNC(=N)N)C(=O)N3C[C@H](O)C[C@H]3C(=O)NCC(=O)N[C@@H](Cc3ccccc3)C(=O)N[C@@H](CO)C(=O)N[C@H](Cc3ccccc3)C(=O)N[C@@H](CC(C)C)C(=O)N[C@@H](CCCNC(=N)N)C(=O)O)C2=O)C1=O)NC(=O)[C@H](CCCNC(=N)N)NC(=O)[C@H](N)CCCNC(=N)N)C(=O)N[C@@H](CCCNC(=N)N)C(=O)O (stereo partly shown) [CP-0154] (HELM PEPTIDE1{[dR].R.C.[Hyp].G.F.S.[dF].L.R}|PEPTIDE2{[dR].R.C.[Hyp].G.F.S.[dF].L.R}|CHEM1{[O=C1CC([*:1])C(=O)N1CCCCCCN1C(=O)CC([*:2])C1=O]}$PEPTIDE1,CHEM1,3:R3-1:R1|PEPTIDE2,CHEM1,3:R3-1:R2$$$V2.0)	P.A.	
CC(C)C[C@H](NC(=O)[C@@H](Cc1ccccc1)NC(=O)[C@H](CO)NC(=O)[C@H](Cc1ccccc1)NC(=O)CNC(=O)[C@@H]1C[C@@H](O)CN1C(=O)[C@@H]1CCCN1C(=O)[C@H](CSC1CC(=O)N(CCCCCCN2C(=O)CC(SC[C@H](NC(=O)[C@H](N)CCCNC(=N)N)C(=O)N3CCC[C@H]3C(=O)N3C[C@H](O)C[C@H]3C(=O)NCC(=O)N[C@@H](Cc3ccccc3)C(=O)N[C@@H](CO)C(=O)N[C@H](Cc3ccccc3)C(=O)N[C@@H](CC(C)C)C(=O)N[C@@H](CCCNC(=N)N)C(=O)O)C2=O)C1=O)NC(=O)[C@H](N)CCCNC(=N)N)C(=O)N[C@@H](CCCNC(=N)N)C(=O)O (stereo partly shown) [CP-0153] (HELM PEPTIDE1{[dR].C.P.[Hyp].G.F.S.[dF].L.R}|PEPTIDE2{[dR].C.P.[Hyp].G.F.S.[dF].L.R}|CHEM1{[O=C1CC([*:1])C(=O)N1CCCCCCN1C(=O)CC([*:2])C1=O]}$PEPTIDE1,CHEM1,2:R3-1:R1|PEPTIDE2,CHEM1,2:R3-1:R2$$$V2.0)	7.7 ± 0.2	
CC(C)C[C@H](NC(=O)[C@@H](Cc1ccccc1)NC(=O)[C@H](CO)NC(=O)[C@H](CS)NC(=O)CNC(=O)[C@@H]1C[C@@H](O)CN1C(=O)[C@@H]1CCCN1C(=O)[C@H](CCCNC(=N)N)NC(=O)[C@H](N)CCCNC(=N)N)C(=O)N[C@@H](CCCNC(=N)N)C(=O)O [CP-0144] (HELM PEPTIDE1{[dR].R.P.[Hyp].G.C.S.[dF].L.R}$$$$V2.0)	7.2 ± 0.1	
CC(C)C[C@H](NC(=O)[C@@H]1CCCN1C(=O)[C@H](CO)NC(=O)[C@H](Cc1cccs1)NC(=O)CNC(=O)[C@@H]1CCCN1C(=O)[C@@H]1CCCN1C(=O)[C@H](CS)NC(=O)[C@@H](N)CCCCN)C(=O)O [CP-0375, K--C--P--P--G--Thi--S--P--L] (HELM PEPTIDE1{K.C.P.P.G.[O=C([C@H](Cc1cccs1)N[*:1])[*:2]].S.P.L}$$$$V2.0)	no measurable activity	
CC(C)C[C@H](NC(=O)[C@@H](Cc1ccccc1)NC(=O)[C@H](CO)NC(=O)[C@H](Cc1ccccc1)NC(=O)CNC(=O)[C@@H]1C[C@@H](O)CN1C(=O)[C@@H]1CCCN1C(=O)[C@H](CCCNC(=N)N)NC(=O)[C@H](N)CS)C(=O)N[C@@H](CCCNC(=N)N)C(=O)O [CP-0149] (HELM PEPTIDE1{[dC].R.P.[Hyp].G.F.S.[dF].L.R}$$$$V2.0)	7.1	
CC(C)C[C@H](NC(=O)[C@@H](Cc1ccccc1)NC(=O)[C@H](CO)NC(=O)[C@H](Cc1ccccc1)NC(=O)CNC(=O)[C@@H]1C[C@@H](O)CN1C(=O)[C@H](CS)NC(=O)[C@H](CCCNC(=N)N)NC(=O)[C@H](N)CCCNC(=N)N)C(=O)N[C@@H](CCCNC(=N)N)C(=O)O [CP-0142] (HELM PEPTIDE1{[dR].R.C.[Hyp].G.F.S.[dF].L.R}$$$$V2.0)	6.4 ± 0.2	
CC(C)C[C@H](NC(=O)[C@@H](Cc1ccccc1)NC(=O)[C@H](CO)NC(=O)[C@H](Cc1ccccc1)NC(=O)CNC(=O)[C@@H]1C[C@@H](O)CN1C(=O)[C@@H]1CCCN1C(=O)[C@H](CCCNC(=N)N)NC(=O)[C@@H](N)CSC1CC(=O)N(CCCCCCN2C(=O)CC(SC[C@H](N)C(=O)N[C@@H](CCCNC(=N)N)C(=O)N3CCC[C@H]3C(=O)N3C[C@H](O)C[C@H]3C(=O)NCC(=O)N[C@@H](Cc3ccccc3)C(=O)N[C@@H](CO)C(=O)N[C@H](Cc3ccccc3)C(=O)N[C@@H](CC(C)C)C(=O)N[C@@H](CCCNC(=N)N)C(=O)O)C2=O)C1=O)C(=O)N[C@@H](CCCNC(=N)N)C(=O)O (stereo partly shown) [CP-0152] (HELM PEPTIDE1{C.R.P.[Hyp].G.F.S.[dF].L.R}|PEPTIDE2{C.R.P.[Hyp].G.F.S.[dF].L.R}|CHEM1{[O=C1CC([*:1])C(=O)N1CCCCCCN1C(=O)CC([*:2])C1=O]}$PEPTIDE1,CHEM1,1:R3-1:R1|PEPTIDE2,CHEM1,1:R3-1:R2$$$V2.0)	7.9 ± 0.1	
CC(C)C[C@H](NC(=O)[C@@H]1CCCN1C(=O)[C@H](CO)NC(=O)[C@H](Cc1cccs1)NC(=O)CNC(=O)[C@@H]1CCCN1C(=O)[C@@H]1CCCN1C(=O)[C@H](CSC1CC(=O)N(CCCCCCN2C(=O)CC(SC[C@H](NC(=O)[C@H](Cc3ccccc3)NC(=O)CNC(=O)[C@@H]3C[C@@H](O)CN3C(=O)[C@@H]3CCCN3C(=O)[C@H](CCCNC(=N)N)NC(=O)[C@H](N)CCCNC(=N)N)C(=O)N[C@H](Cc3ccccc3)C(=O)N[C@@H](CC(C)C)C(=O)N[C@@H](CCCNC(=N)N)C(=O)O)C2=O)C1=O)NC(=O)[C@@H](N)CCCCN)C(=O)O (stereo partly shown) [CP-0383] (HELM PEPTIDE1{[dR].R.P.[Hyp].G.F.C.[dF].L.R}|PEPTIDE2{K.C.P.P.G.[O=C([C@H](Cc1cccs1)N[*:1])[*:2]].S.P.L}|CHEM1{[O=C1CC([*:1])C(=O)N1CCCCCCN1C(=O)CC([*:2])C1=O]}$PEPTIDE1,CHEM1,7:R3-1:R1|PEPTIDE2,CHEM1,2:R3-1:R2$$$V2.0)	Agonist; also recorded: substantial partial agonism	
CC(C)C[C@H](NC(=O)[C@@H](Cc1ccccc1)NC(=O)[C@H](CSC1CC(=O)N(CCCCCCCCCCCCN2C(=O)CC(SC[C@H](NC(=O)[C@H](Cc3ccccc3)NC(=O)CNC(=O)[C@@H]3C[C@@H](O)CN3C(=O)[C@@H]3CCCN3C(=O)[C@H](CCCNC(=N)N)NC(=O)[C@H](N)CCCNC(=N)N)C(=O)N[C@H](Cc3ccccc3)C(=O)N[C@@H](CC(C)C)C(=O)N[C@@H](CCCNC(=N)N)C(=O)O)C2=O)C1=O)NC(=O)[C@H](Cc1ccccc1)NC(=O)CNC(=O)[C@@H]1C[C@@H](O)CN1C(=O)[C@@H]1CCCN1C(=O)[C@H](CCCNC(=N)N)NC(=O)[C@H](N)CCCNC(=N)N)C(=O)N[C@@H](CCCNC(=N)N)C(=O)O (stereo partly shown) [CP-0166] (HELM PEPTIDE1{[dR].R.P.[Hyp].G.F.C.[dF].L.R}|PEPTIDE2{[dR].R.P.[Hyp].G.F.C.[dF].L.R}|CHEM1{[O=C1CC([*:1])C(=O)N1CCCCCCCCCCCCN1C(=O)CC([*:2])C1=O]}$PEPTIDE1,CHEM1,7:R3-1:R1|PEPTIDE2,CHEM1,7:R3-1:R2$$$V2.0)		IRREVERSIBLE
CC(C)C[C@H](NC(=O)[C@@H](Cc1ccccc1)NC(=O)[C@H](CO)NC(=O)[C@H](Cc1ccccc1)NC(=O)CNC(=O)[C@H](CS)NC(=O)[C@@H]1CCCN1C(=O)[C@H](CCCNC(=N)N)NC(=O)[C@H](N)CCCNC(=N)N)C(=O)N[C@@H](CCCNC(=N)N)C(=O)O [CP-0143] (HELM PEPTIDE1{[dR].R.P.C.G.F.S.[dF].L.R}$$$$V2.0)	P.A.	
